Reference: the RNAGym collection of RNA variant scans (doi:10.7554/elife.90254)
The source gives no read counts; variants with many changes may rest on few reads.

B1: LINE1-full (parent)
chain: UACGUAGGUGGUUUUCCCCUGAUAGUGCUAAGGGGGCCUGGAAGUUUGGACUGGGCAGAGCUCAACACAGCGUGGCAAAGUGGCUGUGGCUAGACUGCCUCUCUGGAUUCCUCGUCACUCAGCAGGGCAUCUCUGAGAGAAAUGCC

Variants of: B1
Test: self-cleavage, relative activity (ratio to wild type); higher = more cleavage; in vitro, sequencing; the parent is a self-cleaving ribozyme

Variant	self-cleavage
U14C A31U A65G	0
U14C A31U C90U A107G	0.13
U14C A31U U39A U132C	1.62
U14C A31U U73C U119A A138G	2.3
U14C A42G A50C U134A	0.38
U14C A42G A64G	0.39
U14C A42G A121U U130C	2.19
U14C A42G U62C	0.14
U14C A42G U62C U96G	0
U14C A42G U108C U115A A129G A140U	1.02
U14C A42U A64G	0
U14C A42U A79U A138G	0.89
U14C A42U A141G	1.01
U14C A43C A121U U132C U143A	2.23
U14C A43G A78U A124G	1.22
U14C A43G A142G	0.72
U14C A43G C76U	2.12
U14C A43G G53U	1.59
U14C A43G U45C A50G C71U A142G	0.26
U14C A43G U62C	0.12
U14C A43G U108C	0.88
U14C A43G U112C	0.34
U14C A43U A121G	0.67
U14C A43U U47A G74A U100A	0.5

Variant	self-cleavage
U14C A50G U143C	0.15
U14C A50U U102C U108C	1.23
U14C A50U U119C A136G A138G	1.71
U14C A57G A64C A141G	0.11
U14C A57G A79G	0.94
U14C A57G A92U	0.27
U14C A57G A107G	1.84
U14C A57G U91C A142G	0.27
U14C A57U A129U	0.22
U14C A59G A117U	0.16
U14C A59G A141G	0.1
U14C A59G C113G U119C U134C	0.13
U14C A59G G60C C76U	0.05
U14C A59G U115C	0.4
U14C A59U C84U	0.17
U14C A59U G83A U102C	0.5
U14C A59U U87C A129U	0.44
U14C A64G U73A U134A	0.48
U14C A64G U73C A124G A136U	0
U14C A64G U104A	0.31
U14C A64U A107G C128U U143C	0.48
U14C A64U U119C	0.7
U14C A65G A69U A79G A129U	0
U14C A65G A117G A138G	0

Variant	self-cleavage
U14C A65G A121C	0.29
U14C A65G U102C U104A	0
U14C A67C A79G U100C	0.92
U14C A67C U108C	0.22
U14C A67G U109C A136U	0.26
U14C A67U U108C	0.06
U14C A69C U81A A129U A136U	0
U14C A69G U87C	0.34
U14C A69G U109A	0
U14C A69U A79U U96A	0.12
U14C A77C C123U U134C	1.24
U14C A77G A94G A124G	0
U14C A77G U143C	2.15
U14C A77U A94U	0.33
U14C A78U U81C	1.79
U14C A78U U87A U115A	0.08
U14C A78U U100C C123U	2.9
U14C A78U U132C	2.66
U14C A79G A92G	0
U14C A79G A92U	0.56
U14C A79G U85C U112C	1.02
U14C A79G U132C	1.27
U14C A92G U109C	0.14
U14C A92G U130C	0.29

Variant	self-cleavage
U14C A92U A140G	0.47
U14C A92U U130A	1.32
U14C A94G A107G U108A	0
U14C A94G G127C	0.37
U14C A94G U115C A124U A136G	0
U14C A117U A136G	1.2
U14C A121G G122U	1.98
U14C A121G U132C	0.98
U14C A124G A141G	0.98
U14C A124U A136G	0.41
U14C A129G A140G	1.02
U14C A129G C133U	2.47
U14C A129G U132A	1.84
U14C A138U A141G	1.15
U14C A142G U143C	1.67
U14C C16U A69G A94G	0
U14C C16U U39C	1.69
U14C C18A U20C A69U A124G	0.38
U14C C18A U46C U112C	1.13
U14C C18A U85C	0.17
U14C C18U G54U U102C	1.84
U14C C19G A30G	0.57
U14C C19G U52C U132A	1.17
U14C C19U A59G A92G A129G	0.51

Variant	self-cleavage
U14C C19U A64G U87A	0.22
U14C C19U A79G U96C A129C	0
U14C C19U A136U	1.09
U14C C19U G55A	0.14
U14C C19U U52G	0.86
U14C C28G A142G	0.59
U14C C37A U73A A136G	1.65
U14C C37G U96A	0
U14C C38U U46A A141C	1.01
U14C C51A A79G U109A	0.37
U14C C56U A57G A69U A78U U130C C131U	0.06
U14C C63U A121G	0.4
U14C C63U U132C	0.47
U14C C71U A117G	0.92
U14C C71U U100C	1.66
U14C C76U A121U A129U	1.78
U14C C99U U134A	0.41
U14C C110U U134C A136U	1.1
U14C C120A A136G	1.3
U14C C123U U134C A138G	0.82
U14C C133A U134A	0.59
U14C G21U U100C A124G G144A	1.23
U14C G21U U130C	1.16
U14C G27A A64U A140G	0.5

Variant	self-cleavage
U14C G32A U85A U115C G125U	0.1
U14C G33A A69U	0.1
U14C G33A A94C	0.23
U14C G33C U130C C146U	1.6
U14C G33U G127A	1.32
U14C G34A A79G U104C	1.23
U14C G34A U91A A117U A142U	0.35
U14C G34A U119C A141G	1.1
U14C G34U A50U	1.2
U14C G34U A69G A138G	0.97
U14C G35A A50G A79G U134C	0.75
U14C G36A A57U	0.08
U14C G36U U100C	1.73
U14C G48A U109A C145G	1.15
U14C G53A G60A A64G U91C	0
U14C G54A U96G A140G U143C	0
U14C G60A U96A	0.02
U14C G70A A117C	0.36
U14C G70A A124U	0.29
U14C G72A A77G U100C	2.95
U14C G75A A92U	0.44
U14C G80A A141G	1.57
U14C G83C A94G	0.28
U14C G88A A124G	0.06

Variant	self-cleavage
U14C G88A U112C A138C C145A	0.04
U14C G114U U130A	1.35
U14C U15A A43G A77U	0.88
U14C U15A A50U U73C U130A	0.61
U14C U15A U46C A129G	0.98
U14C U15C A30G	0
U14C U15C A57G A117U	0.88
U14C U15C A65G C145U	0.22
U14C U15C A65G U130A A141G	0.34
U14C U15C C38U A78G	1.35
U14C U15C U26C	1.39
U14C U15C U39C U100A A142G	0.68
U14C U15C U62C	0.21
U14C U20A A42G U85A A140U	0.22
U14C U20A A77G	1.56
U14C U20A G36A C68U U115A U134C	0.15
U14C U20C A22G	0.37
U14C U20C A79G U102C	0
U14C U20C A117U A121U	1.56
U14C U20C C61U	0.16
U14C U20C G80U U112C	1.24
U14C U20C G127A A138U	0.73
U14C U20C U26A A142G	0.8
